According to patent US5556859A, “N-(4-pyrimidinyl)amide pesticides” (DowElanco, priority 1994, dated 1996):
The name of at least one read-out is uncertain.

Key:
Format in all cases: in vivo
Details in all cases: foliar spray, 400 ppm or 100 ppm per scale
[1] = test system: Leptosphaeria nodorum (glume blotch); test: Greenhouse fungicide test, LEPTNO on wheat
[2] = test system: Pyricularia oryzae (rice blast)
[3] = test system: Puccinia recondita tritici (leaf rust); test: Greenhouse fungicide test, PUCCRT on wheat
[4] = test system: Erysiphe graminis tritici (powdery mildew); test: Greenhouse fungicide test, ERYSGT on wheat

Row | SMILES | control of disease, LEPTNO [1] | control of disease, PYRIOR [2] | control of disease, PUCCRT [3] | control of disease, ERYSGT [4]
1 | CCCCc1nccc(NC(=O)Cc2ccc(Oc3ccc(F)cc3)cc2)n1 [Compound 21, 4-(4-fluorophenoxy)phenyl-N-(2-butyl-4-pyrimidinyl)acetamide] | ++ (90-100% control at 400 ppm) | + (20-89% control at 400 ppm) | ++ (90-100% control at 400 ppm) | –
2 | CCc1nccc(NC(=O)Cc2ccc(Oc3ccc(C(C)=O)cc3)cc2)n1 [Compound 49, 4-(4-acetylphenoxy)phenyl-N-(2-ethyl-4-pyrimidinyl)acetamide] | + (20-89% control at 400 ppm) | + (20-89% control at 400 ppm) | ++ (90-100% control at 400 ppm) | + (20-89% control at 400 ppm)
3 | CC(C)(C)c1nccc(NC(=O)Cc2ccc(Oc3ccc(C#N)cc3)cc2)n1 [Compound 60, 4-(4-cyanophenoxy)phenyl-N-(2-(1,1-dimethylethyl)-4-pyrimidinyl)acetamide] | ++ (90-100% control at 400 ppm) | + (20-89% control at 400 ppm) | ++ (90-100% control at 400 ppm) | + (20-89% control at 400 ppm)
4 | O=C(Cc1ccc(OCC(F)(F)F)cc1)Nc1ccnc(-c2ccccc2)n1 [Compound 5, 4-(2,2,2-trifluroethoxy)phenyl-N-(2-phenyl-4-pyrimidinyl)acetamide] | + (20-89% control at 400 ppm) | - (0-19% control at 400 ppm) | - (0-19% control at 400 ppm) | + (20-89% control at 400 ppm)
5 | CCc1nccc(NC(=O)Cc2ccc(Oc3ncc(Br)cn3)cc2)n1 [Compound 14, 4-(5-bromo-2-pyrimidinyloxy)phenyl-N-(2-ethyl-4-pyrimidinyl)acetamide] | ++ (90-100% control at 400 ppm) | + (20-89% control at 400 ppm) | + (20-89% control at 400 ppm) | ++ (90-100% control at 400 ppm)
6 | CC(C)c1nccc(NC(=O)Cc2ccc(Oc3ccc(F)cc3)cc2)n1 [Compound 31, 4-(4-fluorophenoxy)phenyl-N-(2-(1-methylethyl)-4-pyrimidinyl)acetamide] | + (20-89% control at 400 ppm) | + (20-89% control at 400 ppm) | + (20-89% control at 400 ppm) | ++ (90-100% control at 400 ppm)
7 | O=C(Cc1ccc(Oc2ccc(C(F)(F)F)cc2)cc1)Nc1ccncn1 [Compound 68, 4-(4-trifluoromethylphenoxy)phenyl-N-(4-pyrimidinyl)acetamide] | ++ (90-100% control at 400 ppm) | + (20-89% control at 400 ppm) | - (0-19% control at 400 ppm) | - (0-19% control at 400 ppm)
8 | Cc1nccc(NC(=O)Cc2ccc(Oc3ccc(C#N)cc3)cc2)n1 [Compound 2, 4-(4-cyanophenoxy)phenyl-N-(2-methyl-4-pyrimidinyl)acetamide] | ++ (90-100% control at 400 ppm) | + (20-89% control at 400 ppm) | ++ (90-100% control at 400 ppm) | + (20-89% control at 400 ppm)
9 | Cc1nccc(NC(=O)Cc2ccc(Oc3ccc(C(F)(F)F)cc3)cc2)n1 [Compound 63, 4-(4-trifluoromethylphenoxy)phenyl-N-(2-methyl-4-pyrimidinyl)acetamide] | +++ (90-100% control at 100 ppm) | +++ (90-100% control at 100 ppm) | ++ (90-100% control at 400 ppm) | +++ (90-100% control at 100 ppm)
10 | CCc1nccc(NC(=O)Cc2ccc(OC(F)(F)C(F)F)cc2)n1 [Compound 55, 4-(1,1,2,2-tetrafluoroethoxy)phenyl-N-(2-ethyl-4-pyrimidinyl)acetamide] | +++ (90-100% control at 100 ppm) | ++ (90-100% control at 400 ppm) | ++ (90-100% control at 400 ppm) | +++ (90-100% control at 100 ppm)
11 | COCc1nccc(NC(=O)Cc2ccc(OCC(F)(F)F)cc2)n1 [Compound 38, 4-(2,2,2-trifluroethoxy)phenyl-N-(2-(methoxymethyl)-4-pyrimidinyl)acetamide] | +++ (90-100% control at 100 ppm) | +++ (90-100% control at 100 ppm) | - (0-19% control at 400 ppm) | ++ (90-100% control at 400 ppm)
12 | CCc1nccc(NC(=O)Cc2ccc(Oc3ccc([N+](=O)[O-])cc3)cc2)n1 [Compound 53, 4-(4-nitrophenoxy)phenyl-N-(2-ethyl-4-pyrimidinyl)acetamide] | +++ (90-100% control at 100 ppm) | ++ (90-100% control at 400 ppm) | ++ (90-100% control at 400 ppm) | ++ (90-100% control at 400 ppm)
13 | CCCCCCCCC(C)C(=O)Nc1ccnc(CC)n1 (centres unmarked) [Compound 33, N-(2-ethyl-4-pyrimidinyl)-2 methyldecamide] | - (0-19% control at 400 ppm) | - (0-19% control at 400 ppm) | + (20-89% control at 400 ppm) | - (0-19% control at 400 ppm)
14 | CCc1nccc(NC(=O)Cc2ccc(Oc3ccc(S(C)(=O)=O)cn3)cc2)n1 [Compound 36, 4-(5-methylsulfonyl-2-pyridinyloxy)phenyl-N-(2-ethyl-4-pyrimidinyl)acetamide] | ++ (90-100% control at 400 ppm) | + (20-89% control at 400 ppm) | ++ (90-100% control at 400 ppm) | - (0-19% control at 400 ppm)
15 | CCc1nccc(NC(=O)Cc2ccc(C(C)(C)C)cc2)n1 [Compound 48, 4-(1,1-dimethylethyl)phenyl-N-(2-ethyl-4-pyrimidinyl)acetamide] | + (20-89% control at 400 ppm) | + (20-89% control at 400 ppm) | ++ (90-100% control at 400 ppm) | +++ (90-100% control at 100 ppm)
16 | O=C(Cc1ccc(Oc2ccc(C(F)(F)F)cc2)cc1)Nc1ccnc(C2CCC2)n1 [Compound 66, 4-(4-trifluoromethylphenoxy)phenyl-N-(2-cyclobutyl-4-pyrimidinyl)acetamide] | +++ (90-100% control at 100 ppm) | + (20-89% control at 400 ppm) | ++ (90-100% control at 400 ppm) | +++ (90-100% control at 100 ppm)
17 | CC(C)(C)c1nccc(NC(=O)Cc2ccc(OCC(F)(F)F)cc2)n1 [Compound 24, 4-(2,2,2-trifluroethoxy)phenyl-N-(2-(1,1-dimethylethyl)-4-pyrimidinyl)acetamide] | ++ (90-100% control at 400 ppm) | + (20-89% control at 400 ppm) | ++ (90-100% control at 400 ppm) | –
18 | CCc1nccc(NC(=O)C(=CNCC(C)C)c2ccc(Oc3ccc(C#N)cc3)cc2)n1 [Compound 80, 3-(2-methylpropylamino)-N-(2-ethyl-4-pyrimidinyl)-2-(4-(4-cyanophenoxy)phenyl)-2-propenamide] | - (0-19% control at 400 ppm) | +++ (90-100% control at 100 ppm) | ++ (90-100% control at 400 ppm) | +++ (90-100% control at 100 ppm)
19 | CCc1nccc(NC(=O)Cc2ccc(OC(F)F)cc2)n1 [Compound 42, 4-difluromethoxy-N-(2-ethyl-4-pyrimidinyl)acetamide] | ++ (90-100% control at 400 ppm) | ++ (90-100% control at 400 ppm) | ++ (90-100% control at 400 ppm) | ++ (90-100% control at 400 ppm)
20 | CCCCc1nccc(NC(=O)Cc2ccc(OCC(F)(F)F)cc2)n1 [Compound 20, 4-(2,2,2-trifluroethoxy)phenyl-N-(2-butyl-4-pyrimidinyl)acetamide] | ++ (90-100% control at 400 ppm) | ++ (90-100% control at 400 ppm) | ++ (90-100% control at 400 ppm) | –
21 | CCCCc1nccc(NC(=O)Cc2ccc(Oc3ccc(C(F)(F)F)cc3)cc2)n1 [Compound 65, 4-(4-trifluoromethylphenoxy)phenyl-N-(2-butyl-4-pyrimidinyl)acetamide] | ++ (90-100% control at 400 ppm) | ++ (90-100% control at 400 ppm) | – | + (20-89% control at 400 ppm)
22 | O=C(Cc1ccc(OCC(F)(F)F)cc1)Nc1ccnc(C2CCC2)n1 [Compound 22, 4-(2,2,2-trifluroethoxy)phenyl-N-(2-cyclobutyl-4-pyrimidinyl)acetamide] | ++ (90-100% control at 400 ppm) | ++ (90-100% control at 400 ppm) | ++ (90-100% control at 400 ppm) | –
23 | CC(C)(C)c1nccc(NC(=O)Cc2ccc(Oc3ccc(F)cc3)cc2)n1 [Compound 25, 4-(4-fluorophenoxy)phenyl-N-(2-(1,1-dimethylethyl)-4-pyrimidinyl)acetamide] | ++ (90-100% control at 400 ppm) | + (20-89% control at 400 ppm) | ++ (90-100% control at 400 ppm) | –
24 | CCCc1nccc(NC(=O)Cc2ccc(OCC(F)(F)F)cc2)n1 [Compound 18, 4-(2,2,2-trifluroethoxy)phenyl-N-(2-propyl-4-pyrimidinyl)acetamide] | ++ (90-100% control at 400 ppm) | ++ (90-100% control at 400 ppm) | ++ (90-100% control at 400 ppm) | –
